Out of some 150,000 compounds screened, about 540 (0.36%) showed an effect of 50% or more. The list shows a part of the results.
These molecules were tested on Plasmodium falciparum (assay: Primary screen in NF54 nanoGlo assay, in single point, at 2uM, 72h; a lower Z score goes with more inhibition). Settings: timepoint 72 hour.
Format: functional, Erythrocyte
In the case of `CN1CCCN(CC2CC(CO)CN(C/C=C/c3ccc(F)cc3)C2)CC1` (stereo not drawn), the “% Inhibition” value is reported as 19% and the Z score is reported as -3.74. For `O=C1C2CCCCC2C(c2c(-c3ccccc3)[nH]c3ccccc23)N1Cc1ccccc1` (stereo not drawn), the “% Inhibition” value was 41% and the Z score was -8.2. In the case of `O[C@H]1CCCN(CCCNc2nccc3ccccc23)C1`, the “% Inhibition” value is reported as -2% and the Z score is reported as 0.39. With `Cc1cc(S(=O)(=O)NCc2csc(=O)[nH]2)c(C)s1` the “% Inhibition” value was -5% and the Z score was 1.15. For `Cc1cnccc1NCCNCc1cccc(OCCCCN2CCOCC2)c1`, the “% Inhibition” value was 95% and the Z score was -20.36. With `Fc1ccc2[nH]c(-c3ccon3)nc2c1` the “% Inhibition” value was -12% and the Z score was 2.09. With `Cc1cc(O)c(Cl)cc1-c1ccc2nccc(N)c2c1` the “% Inhibition” value was 91% and the Z score was -15.94. In the case of `O=C(Cc1cc[nH]n1)N[C@@]1(Cc2ccc(Cl)cc2)CCOC1`, the “% Inhibition” value is reported as 1% and the Z score is reported as -0.08. With `CN1CC[C@H](CNc2ncnc3c2CCN(C2CCOCC2)CC3)C1` the “% Inhibition” value was -4% and the Z score was 0.73. With `O=S(=O)(Cc1noc2ccccc12)N1CCC[C@H](Cn2ccnn2)C1` the “% Inhibition” value was 2% and the Z score was -0.34. For `O[C@@]1(CN2CCN(C/C=C/c3ccccc3)CC2)CCCN2CCCC[C@@H]21`, the “% Inhibition” value was 8% and the Z score was -1.68. In the case of `CN1CCCN(CCCNC2CCC(C(F)(F)F)CC2)CC1` (stereo not drawn), the “% Inhibition” value is reported as 19% and the Z score is reported as -3.29. For `C[C@H]1COCCN1CCN1CCC(c2nc3c(F)cccc3[nH]2)CC1`, the “% Inhibition” value was -5% and the Z score was 0.75. For `CN1CCN(C(=O)CN2CCN(CCC(=O)Nc3ccc4cc[nH]c4c3)CC2)CC1`, the “% Inhibition” value was 5% and the Z score was -0.91. With `Cc1cc(N2CCN(C[C@H](O)C(C)(C)C)CC2)nc(N)n1` the “% Inhibition” value was -11% and the Z score was 1.98. `Cc1cccc(N2CCN(Cc3nc(-c4ccc(-c5ccccc5)cc4)oc3C)CC2)n1` was tested, and the “% Inhibition” value was -8% and the Z score was 1.43. `CC(C)C1CCC(N2CCN(CCN3CCO[C@@H](C)C3)CC2)CC1` (stereo partly drawn) was tested, and the “% Inhibition” value was -7% and the Z score was 1.09. `Cc1cc(NC(=O)NC[C@H](O)c2cccs2)n(CC(C)C)n1` was tested, and the “% Inhibition” value was -5% and the Z score was 0.72. With `OCCNc1nc(NC2CCCCCC2)cc([C@H]2CCOC2)n1` the “% Inhibition” value was -11% and the Z score was 1.83. For `O=C(C1CCCC1)N1CC(O)C(Cc2ccnc3ccccc23)C1` (stereo not drawn), the “% Inhibition” value was 5% and the Z score was -0.99. For `O=C(CN1Cc2ccccc2C1=O)N[C@@H](C(=O)O)c1ccc2c(c1)CCO2`, the “% Inhibition” value was -5% and the Z score was 0.86. In the case of `O=C(c1ccc(N[C@H]2CCCN(Cc3ccc(F)cc3)C2)nc1)N1CCOCC1`, the “% Inhibition” value is reported as -1% and the Z score is reported as 0.19. In the case of `c1ccc(N2CCOCC2)c(CNc2ccc3[nH]ncc3c2)c1`, the “% Inhibition” value is reported as -4% and the Z score is reported as 0.79. For `C[C@@H](c1ccco1)N(C)S(=O)(=O)N1CCOC(C)(C)C1`, the “% Inhibition” value was -1% and the Z score was 0.24. `CN1CCN(c2cc(NCCCn3nnc4ccccc43)nc(N)n2)CC1` was tested, and the “% Inhibition” value was -4% and the Z score was 0.77. For `O=C(Nc1cnc2c(c1)COCC2)c1cc2c(OC(F)(F)F)cccc2[nH]1`, the “% Inhibition” value was 93% and the Z score was -14.17. For `CCOC(=O)N1CCC(NCCNc2ccc3ccccc3n2)CC1`, the “% Inhibition” value was -8% and the Z score was 1.69. With `Cc1cc2nc(N3CCCN(C4CCN(CCc5ccccc5)CC4)CC3)nc(C)c2cc1C` the “% Inhibition” value was 0% and the Z score was -0.06. In the case of `Nc1ccnc(-c2cccc3[nH]ccc23)c1`, the “% Inhibition” value is reported as 27% and the Z score is reported as -5.45. `COc1ccc(-c2ccc(C(=O)N3CCC4(CC3)CNC(=O)O4)cc2)nn1` was tested, and the “% Inhibition” value was -4% and the Z score was 0.55. `Cc1cc(N2CCCN(Cc3cncn3C3CCCCC3)CC2)ccn1` was tested, and the “% Inhibition” value was 4% and the Z score was -0.7. For `CCOc1ccc(-c2cccc3cnccc23)cc1CNC`, the “% Inhibition” value was 13% and the Z score was -1.92. `CC(C)Oc1cc(N2CCN([C@H]3CCNC3)CC2)ncn1` was tested, and the “% Inhibition” value was -9% and the Z score was 1.87. In the case of `O=C(Cc1coc2cc(Cl)ccc12)N1CCC[C@H](N2CCNCC2=O)C1`, the “% Inhibition” value is reported as -6% and the Z score is reported as 1.01. With `CCNc1ncc(-c2nc(CC3CCN(C)CC3)no2)cn1` the “% Inhibition” value was 2% and the Z score was -0.3. `Cn1cc(-c2ncc(C(=O)N3CC[C@H](N4CCNCC4)C3)s2)cn1` was tested, and the “% Inhibition” value was 2% and the Z score was -0.38. In the case of `CC(C)NC1CCN(C[C@]2(O)CCN(Cc3ccccc3)C2)CC1`, the “% Inhibition” value is reported as 4% and the Z score is reported as -0.6. In the case of `COc1ccc2oc(CN[C@H]3CCCO[C@@H]3c3ccncc3)cc2c1`, the “% Inhibition” value is reported as -13% and the Z score is reported as 2.89. In the case of `CN(Cc1cc(-c2cccnc2)no1)C(=O)CN1CCN(c2ncccn2)CC1`, the “% Inhibition” value is reported as -6% and the Z score is reported as 1.39. For `O=C(N[C@@H](Cc1ccccc1)C(=O)N1CCN(C2CCCC2)CC1)OCc1ccccc1`, the “% Inhibition” value was 5% and the Z score was -1.11. In the case of `NS(=O)(=O)c1ccc(CNC(=O)c2cc(C3CC3)nc3ccccc23)s1`, the “% Inhibition” value is reported as -7% and the Z score is reported as 1.53. In the case of `CCOc1ccccc1CN(C(=O)c1ccc(CN2CCCC2)o1)C1CC1`, the “% Inhibition” value is reported as 2% and the Z score is reported as -0.29. `CCc1oc2ccccc2c1CNC[C@H](O)c1ccc(Cl)cc1` was tested, and the “% Inhibition” value was 98% and the Z score was -19.37. With `CN(C[C@H]1CCCN(c2nc(-c3cccnc3)nc3ccccc23)C1)C(=O)OC(C)(C)C` the “% Inhibition” value was 2% and the Z score was -0.3. With `CC1CC(C)C(C(=O)Nc2n[nH]cc2Br)O1` (stereo not drawn) the “% Inhibition” value was -6% and the Z score was 0.84. In the case of `Cc1ccc(C)c2c(O)cc(CNC[C@H]3CCCN(CCO)C3)nc12`, the “% Inhibition” value is reported as 1% and the Z score is reported as -0.17. In the case of `NC(=O)C1(N2CCCCC2)CCN(c2ncncc2-c2nc(-c3ccccc3)no2)CC1`, the “% Inhibition” value is reported as -3% and the Z score is reported as 0.56. `COc1cccc(Nc2nc(-c3ccc(Cl)cc3)ncc2C(=O)NCC[C@H]2CCCN2C)c1` was tested, and the “% Inhibition” value was 4% and the Z score was -0.68. `CN1CCN(C2(CNc3ncc(F)c(N(C)C)n3)CCCCC2)CC1` was tested, and the “% Inhibition” value was 7% and the Z score was -1.15. For `CC(C)(C)OC(=O)N1CCN(S(=O)(=O)c2ccc(C(F)(F)F)cc2)[C@H](C#N)C1`, the “% Inhibition” value was -8% and the Z score was 1.27. For `Cc1ccccc1-c1cccc(CN2CCN3CCN(C)C[C@H]3C2)c1`, the “% Inhibition” value was 0% and the Z score was -0.01. In the case of `COC(C)C(=O)NC(C)COCC(C)C` (stereo not drawn), the “% Inhibition” value is reported as 11% and the Z score is reported as -2.32. For `C[C@@H](CN1CCOCC1)N1CCC(OC2CCCCC2)CC1`, the “% Inhibition” value was -15% and the Z score was 3.03. In the case of `CC1CCN(c2ccc(Nc3c(C(=O)O)cnc4c(C(F)(F)F)cccc34)cc2)CC1`, the “% Inhibition” value is reported as 7% and the Z score is reported as -1.43.
